Test results: publication PMC4336329 (PLoS ONE, 2015)
Screen size: about 310,000 compounds; about 14,000 (4.5%) showed an effect of 50% or more. Effects have a minus sign here. This is one part of the list.

These compounds were tested against human ether-à-go-go-related gene (hERG) potassium channel (human, UniProt Q12809) (assay: primary screen, population patch clamp on CHO cells stably expressing hERG).
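Further: peak tail current of the secondary pulse compared with the same well before compound.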

human ether-à-go-go-related gene (hERG) potassium channel, sequence (Q12809 whole entry, looked up): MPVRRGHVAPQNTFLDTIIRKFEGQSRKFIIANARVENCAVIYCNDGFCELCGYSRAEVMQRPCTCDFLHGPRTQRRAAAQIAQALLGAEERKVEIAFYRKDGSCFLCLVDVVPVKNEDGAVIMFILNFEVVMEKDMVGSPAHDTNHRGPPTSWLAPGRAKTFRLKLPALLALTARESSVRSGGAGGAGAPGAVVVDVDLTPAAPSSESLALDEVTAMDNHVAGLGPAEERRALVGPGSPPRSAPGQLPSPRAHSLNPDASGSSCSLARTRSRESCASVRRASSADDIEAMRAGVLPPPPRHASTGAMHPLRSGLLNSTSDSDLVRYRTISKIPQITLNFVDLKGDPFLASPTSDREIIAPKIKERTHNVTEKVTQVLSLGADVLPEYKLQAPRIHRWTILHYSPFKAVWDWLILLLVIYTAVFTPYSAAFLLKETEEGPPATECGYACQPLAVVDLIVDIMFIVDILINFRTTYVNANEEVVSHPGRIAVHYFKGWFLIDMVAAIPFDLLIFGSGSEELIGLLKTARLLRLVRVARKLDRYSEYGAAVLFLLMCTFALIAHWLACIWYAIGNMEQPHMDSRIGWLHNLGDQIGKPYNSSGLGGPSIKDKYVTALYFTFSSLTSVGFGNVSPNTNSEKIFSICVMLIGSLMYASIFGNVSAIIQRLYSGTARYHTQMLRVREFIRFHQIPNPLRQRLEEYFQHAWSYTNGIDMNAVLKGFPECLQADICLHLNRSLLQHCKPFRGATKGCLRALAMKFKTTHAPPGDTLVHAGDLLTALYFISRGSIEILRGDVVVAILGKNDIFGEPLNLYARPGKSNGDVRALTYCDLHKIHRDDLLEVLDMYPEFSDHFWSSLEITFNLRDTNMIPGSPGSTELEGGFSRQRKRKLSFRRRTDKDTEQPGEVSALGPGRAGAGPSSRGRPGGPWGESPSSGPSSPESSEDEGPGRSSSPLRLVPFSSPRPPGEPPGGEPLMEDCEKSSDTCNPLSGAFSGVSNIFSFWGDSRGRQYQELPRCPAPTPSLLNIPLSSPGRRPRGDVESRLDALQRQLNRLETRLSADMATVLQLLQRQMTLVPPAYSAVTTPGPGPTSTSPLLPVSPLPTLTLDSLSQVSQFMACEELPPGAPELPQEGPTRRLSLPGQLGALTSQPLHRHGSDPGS

Structure (SMILES)	hERG current change (%, negative = inhibition) at 10uM [%]
COC(=O)c1ccc(C2=NOC(C)(c3sc(-c4ccc(Cl)cc4)nc3C)C2)cc1 (centres unmarked)	7.59
CCOC(=O)C1=NN(c2ccc(Cl)cc2)C(c2ccccc2)CC1=O (centres unmarked)	-5.12
CCSCCNC(=O)c1cc(-n2cnnc2)ccc1Cl	0.76
O=C(Nc1ccc(F)cc1)c1cccc(N2C(=O)C3C4CCC(C4)C3C2=O)c1 (centres unmarked)	-15
Cc1cc(NC(=O)CSCC(=O)Nc2ccc(C)c(C)c2)no1	-0.691
CC[N+]1(CC)CC2CCC(C)(C1)C2(C)C.[I-] (centres unmarked)	7.2
CCC(C)NC(=O)CN(c1cc(Cl)ccc1OC)S(C)(=O)=O (centres unmarked)	-3.02
Cc1nn(-c2ccccc2)c(C)c1NC(=O)COc1ccc(Br)cc1Cl	-8.91
C=CCOc1ccc2c(CC)cc(=O)oc2c1C	-15.9
O=[N+]([O-])c1ccc(Cl)cc1N1CCCCC1	38.3
O=C(c1ccccc1-c1ccccc1)N1CCCC1	5.04
CCOC(=O)c1cnc(-n2nc(C)cc2C)nc1NCc1ccccc1	-34.7
CN(Cc1ccccc1)C(=O)c1ccccc1C(=O)O	37.5
OC(COCc1ccccc1)Cn1cnc2ccccc21 (centres unmarked)	-4.35
C/C(=N/NC(=O)NC12CC3CC(CC(C3)C1)C2)c1ccccc1	3.09
CSc1nc2ccccc2cc1/C=C(\C#N)c1ccccc1	2.83
COc1cccc(/C=N/NC(=O)c2csc(-n3nc(C)cc3C(F)(F)F)n2)c1	4.54
O=C(O)CNC(=O)c1ccc(S(=O)(=O)N2CCOCC2)cc1	-1.58
Nc1nnnn1/N=C/c1cc(Cl)cc(Cl)c1OCc1ccc(Cl)cc1Cl	-0.427
O=C(COC(=O)c1cc([N+](=O)[O-])ccc1N1CCOCC1)c1ccccc1	-20.1
CC1(C)Nc2ccccc2N(CC(=O)N2CCCCC2)C1=O	7.8
COc1ccc(NC(=O)CNC(=O)c2nn(-c3ccc(OC)c(OC)c3)c(=O)c3ccccc23)c(OC)c1	14.5
CCC(C)Sc1ccc([C@@H]2[C@@H]3C(=O)N(C)C(=O)[C@@H]3[C@]3(C(=O)OC)CCCCN23)cc1.O=C(O)C(F)(F)F (some centres unmarked)	15.3

Structure (SMILES)	hERG current change (%, negative = inhibition) at 10uM [%]
COc1ccc(COc2cc(-c3cccc(OC)c3)nc3ccc(N)cc23)cc1	-13.1
O=C1C(=O)N(CC2CCCO2)C(c2ccco2)/C1=C(/O)c1ccc(F)cc1 (centres unmarked)	-13.4
COc1ccc(CCN2CCCC(CN(C)Cc3cc(OC)ccc3OC)C2)cc1 (centres unmarked)	-69.1
CCCCCc1cc(=O)oc2c(C(CCN3CCCC(C)C3)c3ccc4c(c3)OCO4)c(OC)cc(OC)c12 (centres unmarked)	-7.33
COc1ccc2c(Cl)c(C(=O)NCCCn3ccnc3)sc2c1Cl	6.4
COc1ccc(CSCC(=O)N/N=C/c2ccccc2OCc2ccccc2)cc1	6.71
CCCO/N=C1/C(=O)N(c2ccccc2)c2ccccc21	-42.5
CCc1ccc(OCC(=O)NNC(=S)NC(=O)C2CCCCC2)c(Br)c1	-9.29
CCC(=O)N1CCN(CCN=Cc2c(O)n(C)c(=O)n(C)c2=O)CC1	20.3
CCOc1ccccc1OCC(=O)Nc1nnc(C)s1	6.12
COc1ccc2cc3cc(C(=O)NCCC(C)C)oc3nc2c1	6.93
CCOC(=O)C1CCN(C(C)C(=O)c2c[nH]c3ccccc23)CC1 (centres unmarked)	-42.2
CC(=O)Nn1cnc2c(c1=O)C1(CCCCC1)Cc1ccccc1-2	4.44
CCCCCc1ccc(OCCCC[n+]2cccc(C)c2)c(CCCCC)c1.[Cl-]	-71.1
CC1CCCN(CCCNC(=O)CN2C(=O)CSc3ccc(S(=O)(=O)N4CCOCC4)cc32)C1 (centres unmarked)	19.5
COc1ccc(CCNC(=O)CCc2cc(OC)c(OC)c(OC)c2)cc1	15.1
O=C(O)C1Cc2ccccc2CN1C(=O)c1ccco1 (centres unmarked)	28.8
COC(=O)CCC(=O)OC1(C)C(=O)C=C2C=C(C3CC3)N(CC3CC3)C=C2C1=O (centres unmarked)	13.3
COCCN(C(=O)Cc1cccs1)C(C(=O)NC1CCCC1)c1ccc(OC)c(OC)c1 (centres unmarked)	6.93
O=C(N/C=C/c1ccccc1)Nc1ccc(Cl)cc1	10.3
Cc1nnc(SC(C)C(=O)N2CCc3ccccc32)s1 (centres unmarked)	11.8
C#CC[N+]1(CC#Cc2ccccc2)CCCCC1.[I-]	2.16
CC1(C)C(=O)Nc2ccccc2N1C(=O)c1ccc([N+](=O)[O-])cc1	-4.71

Structure (SMILES)	hERG current change (%, negative = inhibition) at 10uM [%]
COc1cccc(CNC(=O)C2CCCN(C(=O)c3ccc(Cl)cc3)C2)c1 (centres unmarked)	-36
Cc1cc2c(=O)n(C)c(SCC(=O)Nc3ccccc3C)nc2s1	-8.62
Fc1ccc(Oc2cc(N3CCOCC3)nc(-c3ccccc3)n2)c(F)c1	12.5
Cc1nnc(NC(=O)CCC(=O)NC2CCCCCCC2)s1	17.2
CCOC(=O)c1c(C)[nH]c(C(=O)COC(=O)c2[nH]c(C)c(C(C)=O)c2C)c1C	18.5
CCOc1ccc(N2C(=O)CC(SCCN)C2=O)cc1.Cl (centres unmarked)	14.3
O=C(CSc1nnc(SCc2ccc(Cl)cc2)s1)N/N=C/c1c(Cl)cccc1Cl	-11.5
O=C(CN1CCN(C(=O)c2ccco2)CC1)Nc1cccc([N+](=O)[O-])c1	-49.1
N#Cc1nc(-c2cccc3ccccc23)oc1NCCN1CCCCC1	-36.2
Cc1c(NS(=O)(=O)c2cc([N+](=O)[O-])ccc2Cl)c(=O)n(-c2ccccc2)n1C	-10.4
COc1cccc2cc(C(=O)Nc3ccc(F)cc3)c(=Nc3ccc(C(=O)O)cc3)oc12	20.7
O=c1nc2n(c3ncccc13)CCC2	16.3
CN(Cc1ccccc1)c1ccc(C(=O)O)cc1[N+](=O)[O-]	23.5
COc1cccc(-c2nc(C=O)cs2)c1	-25.8
CC(C)C(NC(=O)c1cccs1)c1nnc(SCC(=O)Nc2nccs2)n1C (centres unmarked)	-11.4
COCCNC(=O)C1CCC(CNS(=O)(=O)c2cccc3nsnc23)CC1 (centres unmarked)	17.8
O=C(NCC(O)c1ccc([N+](=O)[O-])cc1)C(c1ccccc1)c1ccccc1 (centres unmarked)	-46.2
C/C(=N\NC(=O)c1c(C)nc2ccccn12)c1cccc([N+](=O)[O-])c1	-17.5
N#CCC(=O)N/N=C/c1ccc(OS(=O)(=O)c2ccccc2)cc1	-6.52
O=C(NCc1ccccc1)NC(=O)c1ccc(Cl)cc1	20.5
COc1cc(C2C(C#N)=C(N)Oc3c2ccc2ccccc32)ccc1OCC(=O)Nc1cccc(C)c1 (centres unmarked)	6.22
NC(=S)N/N=C/c1ccc(-n2nncc2-c2ccc(Cl)cc2)cc1	-9.69
O=C1/C(=C/c2ccc([N+](=O)[O-])cc2)N2CCC1CC2	-20.6

Structure (SMILES)	hERG current change (%, negative = inhibition) at 10uM [%]
CCNc1ccc([N+](=O)[O-])cc1	4.89
CC(C)c1ccc(NC(=S)NN(c2ccccc2)c2ccccc2)cc1	12.7
c1ccc([C@@H]2CO2)cc1	20.7
O=C(Nc1cccs1)NC1CCCC1	4.35
CCCCCCCNC(=O)c1ccc(N2CCC3(CC2)OCCO3)c([N+](=O)[O-])c1	-15.1
CC(=O)O.CC(NO)/C(=N\O)c1cccs1 (centres unmarked)	9.65
COC(=O)C1=C(c2ccc(OC)c(OC)c2)C[C@@H]2CC[C@H]1N2C(=O)NCc1cccc2ccccc12	-10.5
Cc1ccc(OCC(=O)N2CCN(S(C)(=O)=O)CC2)cc1	1.32
Brc1ccc(-[n+]2c(-c3ccccc3)cc(-c3ccccc3)cc2-c2ccccc2)cc1.[O-][Cl+3]([O-])([O-])[O-]	-73.8
COc1ccc(S(N)(=O)=O)cc1C(=O)OCC1CCCCC1	-28
CC1CCCCC12NC(=O)N(CC(=O)N1CCN(C(=O)c3cccs3)CC1)C2=O (centres unmarked)	8.03
COc1cccc(/C=C2\CCC(C3CCCC3)C2=O)c1 (centres unmarked)	9.44
O=C(CN1CC[n+]2c(-c3cccs3)csc21)c1ccc(-c2ccccc2)cc1.[Br-]	-54.3
CCO/C=C1\C(=O)N(CC)c2ccccc21	1.58
CCC(C(=O)NCc1ccncc1)c1ccccc1 (centres unmarked)	13.7
O=C(O)/C=C/C(=O)NCCCc1ccccc1	-6.6
O=C(Nc1cccc2cccc(NC(=O)c3ccco3)c12)c1ccco1	7.14
Cc1ccc(C2=C(O)c3ccccc3C(=O)C2=O)cc1	13.6
O=C(COC(=O)CCCSc1nc2ccccc2[nH]1)Nc1cccc(F)c1	-11
COc1ccc(CCNC(=O)CSc2ccsc2[N+](=O)[O-])cc1OC	4.43
